Source: the supplement of paper PMC7125110
± gives the standard error. Variants at the background level are over-represented here.

B1: glmS ribozyme (parent)
chain: AUAAAAGCGCCAGAACUACAGAAAUGUAGUUGACGAGGAGGAGGUUUAUCGAAUUUUCGGCGGAUGCCUCCAAA

Experiments:
Settings in all cases: with glucosamine-6-phosphate
glucosamine-6-phosphate [1] = variants of: B1; assay: self-cleavage kobs at 40 uM GlcN6P; higher = faster cleavage; RNA array
In short: (§1)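 E. coli RNA polymerase transcribed barcoded ribozyme variants in situ on sequenced MiSeq chips, which were tracked via a hybridised Cy3 probe at 37 °C. Tiles were imaged over ~14 h after glucosamine-6-phosphate (40 μM to 10 mM) in HEPES/KCl/Mg(OAc)2 buffer was flowed in. Normalised per-tile medians were fit to one- or two-exponential decays for kobs, and kcat and KM came from weighted Michaelis–Menten fits.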

glucosamine-6-phosphate [2] = variants of: B1; assay: self-cleavage kobs at 640 uM GlcN6P; higher = faster cleavage; RNA array
In short: as §1

glucosamine-6-phosphate [3] = variants of: B1; assay: self-cleavage kobs at 10000 uM GlcN6P; higher = faster cleavage; RNA array
In short: as §1

glucosamine-6-phosphate [4] = variants of: B1; assay: self-cleavage kobs at 160 uM GlcN6P; higher = faster cleavage; RNA array
In short: as §1

glucosamine-6-phosphate [5] = variants of: B1; assay: self-cleavage kobs at 2500 uM GlcN6P; higher = faster cleavage; RNA array
In short: as §1

Row | Variant | self-cleavage kobs at 40 uM GlcN6P (glucosamine-6-phosphate [1]) [s⁻¹] | self-cleavage kobs at 640 uM GlcN6P (glucosamine-6-phosphate [2]) [s⁻¹] | self-cleavage kobs at 10000 uM GlcN6P (glucosamine-6-phosphate [3]) [s⁻¹] | self-cleavage kobs at 160 uM GlcN6P (glucosamine-6-phosphate [4]) [s⁻¹] | self-cleavage kobs at 2500 uM GlcN6P (glucosamine-6-phosphate [5]) [s⁻¹]
1 | C8G U49G | < 1e-05 | < 1e-05 | < 1e-05 |  | 
2 | C8G U49C | < 1e-05 | < 1e-05 | < 1e-05 | < 1e-05 | < 1e-05
3 | G9A A48G G63U | < 1e-05 |  |  |  | 
4 | G9A U55A | < 1e-05 |  |  | < 1e-05 | 
5 | C8U C11U U45G A53U U54A C70G | < 1e-05 | < 1e-05 |  |  | < 1e-05
6 | C8A G35C A52G | < 1e-05 | < 1e-05 | < 1e-05 | < 1e-05 | < 1e-05
7 | C8U G13A | < 1e-05 | < 1e-05 |  | < 1e-05 | < 1e-05
8 | C8U A33C C71A | < 1e-05 |  |  |  | 
9 | C8U U31C G37A | < 1e-05 | < 1e-05 | < 1e-05 |  | 
10 | G9A U57G C67U | < 1e-05 |  | < 1e-05 |  | 
11 | C8U G32C | < 1e-05 | < 1e-05 | < 1e-05 | < 1e-05 | < 1e-05
12 | C8U G32U | < 1e-05 | < 1e-05 | < 1e-05 | < 1e-05 | < 1e-05
13 | C8U C10U | < 1e-05 | < 1e-05 |  |  | 
14 | G9A G41C | < 1e-05 | < 1e-05 | < 1e-05 | < 1e-05 | < 1e-05
15 | G9A G38C C68U | < 1e-05 |  |  |  | 
16 | C8G A52U | < 1e-05 | < 1e-05 | < 1e-05 | < 1e-05 | < 1e-05
17 | C8G A52C | < 1e-05 |  | < 1e-05 |  | 
18 | C8G G60U | < 1e-05 |  | < 1e-05 | < 1e-05 | < 1e-05
19 | C8U A53U G63U | < 1e-05 | < 1e-05 |  | < 1e-05 | < 1e-05
20 | G9A A52C | < 1e-05 | < 1e-05 |  | < 1e-05 | < 1e-05
21 | G9A A52U | < 1e-05 | < 1e-05 | < 1e-05 | < 1e-05 | < 1e-05

Row | Variant | self-cleavage kobs at 40 uM GlcN6P (glucosamine-6-phosphate [1]) [s⁻¹] | self-cleavage kobs at 640 uM GlcN6P (glucosamine-6-phosphate [2]) [s⁻¹] | self-cleavage kobs at 10000 uM GlcN6P (glucosamine-6-phosphate [3]) [s⁻¹] | self-cleavage kobs at 160 uM GlcN6P (glucosamine-6-phosphate [4]) [s⁻¹] | self-cleavage kobs at 2500 uM GlcN6P (glucosamine-6-phosphate [5]) [s⁻¹]
22 | C8U C16U C67G | < 1e-05 |  | < 1e-05 |  | 
23 | G9A C58G U65C | < 1e-05 | < 1e-05 |  |  | < 1e-05
24 | C8U G9A C50G C67U | 6.37e-05 ± 1.7e-05 |  | 6.88e-05 ± 1.6e-05 |  | 0.000169 ± 4.6e-05
25 | C8G C68A | < 1e-05 | < 1e-05 | < 1e-05 | < 1e-05 | < 1e-05
26 | C8A C16G A52C | < 1e-05 |  | < 1e-05 |  | 
27 | C8A A42C | < 1e-05 | < 1e-05 |  | < 1e-05 | 
28 | C8A C11A U54C | < 1e-05 |  |  |  | < 1e-05
29 | C8G U65C | < 1e-05 | < 1e-05 |  | < 1e-05 | < 1e-05
30 | C8G G9A | < 1e-05 |  |  |  | < 1e-05
31 | C8A A52U | < 1e-05 | < 1e-05 | < 1e-05 | < 1e-05 | < 1e-05
32 | G9C C50A | < 1e-05 | < 1e-05 | < 1e-05 |  | < 1e-05
33 | C8U G60C | < 1e-05 | < 1e-05 | < 1e-05 | < 1e-05 | < 1e-05
34 | C8A G41C A42U | < 1e-05 | < 1e-05 | < 1e-05 |  | 
35 | C8G U56G C70U C71A | < 1e-05 |  |  |  | 
36 | C8A C34U G41A U56A C70U | < 1e-05 |  |  |  | 
37 | C8A C61U | < 1e-05 | < 1e-05 | < 1e-05 |  | 
38 | C8A C61G | < 1e-05 | < 1e-05 | < 1e-05 | < 1e-05 | < 1e-05
39 | G9A C71U | < 1e-05 | < 1e-05 |  | < 1e-05 | 
40 | C8G A64C | < 1e-05 |  | < 1e-05 | < 1e-05 | < 1e-05
41 | C8U G41C U56A | < 1e-05 |  | < 1e-05 | < 1e-05 | 
42 | C8G G13U U31C C70U | < 1e-05 |  |  |  | 

Row | Variant | self-cleavage kobs at 40 uM GlcN6P (glucosamine-6-phosphate [1]) [s⁻¹] | self-cleavage kobs at 640 uM GlcN6P (glucosamine-6-phosphate [2]) [s⁻¹] | self-cleavage kobs at 10000 uM GlcN6P (glucosamine-6-phosphate [3]) [s⁻¹] | self-cleavage kobs at 160 uM GlcN6P (glucosamine-6-phosphate [4]) [s⁻¹] | self-cleavage kobs at 2500 uM GlcN6P (glucosamine-6-phosphate [5]) [s⁻¹]
43 | C8G G40U G62U | < 1e-05 |  | < 1e-05 |  | 
44 | C8A G37C A39U | < 1e-05 |  | < 1e-05 |  | 
45 | C8G G37A A42U G44A | < 1e-05 | < 1e-05 |  |  | 
46 | G9C C10U | < 1e-05 | < 1e-05 | < 1e-05 | < 1e-05 | < 1e-05
47 | C8A U55C | < 1e-05 |  | < 1e-05 |  | 
48 | G9A U56A | < 1e-05 | < 1e-05 |  |  | < 1e-05
49 | C8G G32C G62U | < 1e-05 |  | < 1e-05 |  | 
50 | G9C C58A | < 1e-05 | < 1e-05 | < 1e-05 | < 1e-05 | 
51 | C8U U55C | < 1e-05 | < 1e-05 | < 1e-05 |  | < 1e-05
52 | C8A G63U | < 1e-05 | < 1e-05 |  | < 1e-05 | < 1e-05
53 | G9A U30A A39U G43A | < 1e-05 | < 1e-05 |  | < 1e-05 | 
54 | G9A C70G | < 1e-05 | < 1e-05 | < 1e-05 | < 1e-05 | < 1e-05
55 | C8U A14G G40U | < 1e-05 | < 1e-05 | < 1e-05 | < 1e-05 | < 1e-05
56 | C8A C10U A15G C61G | < 1e-05 |  |  |  | 
57 | C8A G51A | < 1e-05 |  |  |  | < 1e-05
58 | C8G G43A G59A G60U | < 1e-05 |  |  |  | 
59 | C8U C16U | < 1e-05 | < 1e-05 |  | < 1e-05 | < 1e-05
60 | C8U A39G | < 1e-05 |  | < 1e-05 | < 1e-05 | < 1e-05
61 | C8U A39C | < 1e-05 | < 1e-05 | < 1e-05 | < 1e-05 | < 1e-05
62 | G9A C34G | < 1e-05 |  | < 1e-05 | < 1e-05 | < 1e-05
63 | C8A U45G | < 1e-05 | < 1e-05 | < 1e-05 | < 1e-05 | < 1e-05

Row | Variant | self-cleavage kobs at 40 uM GlcN6P (glucosamine-6-phosphate [1]) [s⁻¹] | self-cleavage kobs at 640 uM GlcN6P (glucosamine-6-phosphate [2]) [s⁻¹] | self-cleavage kobs at 10000 uM GlcN6P (glucosamine-6-phosphate [3]) [s⁻¹] | self-cleavage kobs at 160 uM GlcN6P (glucosamine-6-phosphate [4]) [s⁻¹] | self-cleavage kobs at 2500 uM GlcN6P (glucosamine-6-phosphate [5]) [s⁻¹]
64 | C8U C11U G44A A48G G63U | < 1e-05 | < 1e-05 | < 1e-05 |  | < 1e-05
65 | C8G G9U C10U U56G | < 1e-05 |  |  |  | 
66 | C8G G41C | < 1e-05 | < 1e-05 | < 1e-05 | < 1e-05 | < 1e-05
67 | C8U A12G | < 1e-05 | < 1e-05 | < 1e-05 | < 1e-05 | < 1e-05
68 | C8A A48C | < 1e-05 | < 1e-05 | < 1e-05 | < 1e-05 | < 1e-05
69 | C8U C10G A15C U45A | < 1e-05 | < 1e-05 |  |  | 
70 | C8U A33C G41A | < 1e-05 |  | < 1e-05 |  | < 1e-05
71 | G9A G59U | < 1e-05 | < 1e-05 | < 1e-05 | < 1e-05 | 
72 | G9A C11A | < 1e-05 |  |  | < 1e-05 | 
73 | C8A G29U G35U | < 1e-05 |  | < 1e-05 |  | 
74 | C8U G35C A39U C50U U55A | < 1e-05 | < 1e-05 |  | < 1e-05 | < 1e-05
75 | C8A G29A | < 1e-05 |  | < 1e-05 |  | 
76 | C8U G51A | < 1e-05 | < 1e-05 | < 1e-05 |  | < 1e-05
77 | C8A U47C U65A | < 1e-05 |  |  |  | 
78 | C8G U69C | < 1e-05 |  |  |  | < 1e-05
79 | C8U C10A G32A G41A | < 1e-05 | < 1e-05 |  | < 1e-05 | < 1e-05
80 | G9A G32C G43A C68G | < 1e-05 |  |  |  | 
81 | C8G U54A | < 1e-05 | < 1e-05 |  | < 1e-05 | < 1e-05
82 | C8A U56C | < 1e-05 | < 1e-05 | < 1e-05 | < 1e-05 | < 1e-05
83 | C8U U57A | < 1e-05 |  |  | < 1e-05 | < 1e-05
